# Several values for one entry are separate records, joined by “and”; a condition that tells them apart may be missing. Identical values can stand only once. The inconclusive results got no clear call from the source; some entries with a clear call stand among them for comparison. A potency beside an inconclusive call is a rough fit, not a confirmed value. Some structures have more than one record in an assay (separate samples or runs), and their calls can disagree. Activity calls are given as the source filed them. Unless noted, calls come from the whole dose curve; as a rule, active = well fitted curve in the direction sought with a large enough effect in the repeat runs; inconclusive = weak or mixed curves; inactive = no such curve, though single readings can be large; an effect the other way counts as inactive or inconclusive.
# Tests used:
# [1] = qHTS assay for small molecule agonists of the p53 signaling pathway - cell viability (AID 651633; calls by dose curve; note: nearly all actives have a fitted effect of over 30% in size)
# Method in brief: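 p53RE-bla cells, seeded at 4,000 per well and rested 5 h at 37 C/5% CO2, received compounds in DMSO for 16 h at 37 C. CellTiter-Glo was then added, and luminescence was read after 30 min at room temperature to gauge cytotoxicity.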
# [2] = target: Glucocorticoid receptor (Homo sapiens) (UniProt P04150); assay: qHTS assay to identify small molecule agonists of the glucocorticoid receptor (GR) signaling pathway (AID 720691; active = well fitted activation curve with a large enough effect in the signal ratio in the repeat runs, not every such curve was filed as active; inconclusive = weak or mixed curves, or effect the other way; inactive = no such curve, though single readings can be large or run the other way; the % refers to the signal ratio); conditions: GR-bla HeLa, beta-lactamase reporter ratio, 18 h; activation: at 62.4 µM (top of the series) unless noted
# Method in brief: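 HeLa GR-bla reporter line; cells pre-incubated 4 h, compound in DMSO 18 h at 37 C; LiveBLAzer B/G FRET substrate 2 h RT; fluorescence intensity read-out.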
# [3] = target: Glucocorticoid receptor (Homo sapiens) (UniProt P04150); assay: qHTS assay to identify small molecule antagonists of the glucocorticoid receptor (GR) signaling pathway (AID 720692; active = well fitted inhibition curve with a large enough effect in the signal ratio in the repeat runs, not every such curve was filed as active; inconclusive = weak or mixed curves, or effect the other way; inactive = no such curve, though single readings can be large or run the other way; the % refers to the signal ratio; for activity change, negative = inhibition: % is set by controls: 0 for no effect and ±100 for the full control effect); conditions: GR-bla HeLa, beta-lactamase FRET ratio, dexamethasone-stimulated, 18 h; activity change, negative = inhibition: at 58.5 µM (top of the series) unless noted
# Method in brief: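 Read-out: beta-lactamase FRET substrate fluorescence, 2 h at room temperature, in HeLa cells stably carrying a GRE-driven bla reporter. Compounds were co-incubated with 5 nM dexamethasone agonist (final) for 18 h at 37 C.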
# [4] = qHTS assay for identifying genotoxic compounds that show differential cytotoxicity against isogenic chicken DT40 cell lines with known DNA damage response pathways - Rev3 mutant cell line (AID 743014); conditions: chicken DT40 Rev3-/- viability, CellTiter-Glo, 40 h; activity, negative = cytotoxicity: at 68.4 µM (top of the series); note: nearly all actives have a fitted effect of over 55% in size; for activity, negative = cytotoxicity: % is set by controls: 0 for no effect and ±100 for the full control effect
# [5] = qHTS assay for identifying genotoxic compounds that show differential cytotoxicity against isogenic chicken DT40 cell lines with known DNA damage response pathways - Rad54/Ku70 mutant cell line (AID 743015); conditions: DT40 Rad54/Ku70 mutant viability, CellTiter-Glo, 40 h; activity change, negative = cytotoxicity: at 66.8 µM (top of the series); note: nearly all actives have a fitted effect of over 60% in size
# [6] = qHTS assay to identify small molecule antagonists of the androgen receptor (AR) signaling pathway - cell viability counter screen (AID 743033; note: nearly all actives have a fitted effect of over 45% in size; for activity change, negative = cytotoxicity: % is set by controls: 0 for no effect and ±100 for the full control effect); conditions: AR-bla HEK293 viability, CellTiter-Glo luminescence, 16 h; activity change, negative = cytotoxicity: at 58.5 µM (top of the series)
# [7] = qHTS assay for small molecule disruptors of the mitochondrial membrane potential - cell viability (AID 720634; calls by dose curve; note: nearly all actives have a fitted effect of over 20% in size)
# Method in brief: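 Luminescence from CellTiter-Glo (ATP content) gave viability in HepG2 cells, read in the same wells as the MMP dye assay after 1 hr compound exposure at 37 C.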
# [8] = qHTS assay for small molecule disruptors of the mitochondrial membrane potential (AID 720635); conditions: HepG2 mitochondrial membrane potential, Mito-MPS dye ratio; ratio activity, negative = MMP loss: at 83.2 µM (top of the series) unless noted; for ratio activity, negative = MMP loss: % is set by controls: 0 for no effect and ±100 for the full control effect
# Method in brief: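 HepG2 cells (2,000/well) attached overnight at 37C, then took compound for 1 hr at 37C, 5% CO2. Mito-MPS dye was added for 30 min; fluorescence was read at 490/535 nm (monomers) and 540/590 nm (aggregates).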
# [9] = qHTS assay for identifying genotoxic compounds that show differential cytotoxicity against isogenic chicken DT40 cell lines with known DNA damage response pathways - wild type cell line (AID 743012); conditions: DT40 wild type chicken cells viability, CellTiter-Glo, 40 h; activity change, negative = cytotoxicity: at 68.4 µM (top of the series) unless noted; note: nearly all actives have a fitted effect of over 60% in size
# Method in brief: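 CellTiter-Glo luminescence readout of viability in wild type DT40 cells after 40 h compound exposure at 37 C/5% CO2; 300 cells/well; reagent incubated 30 min at room temperature before reading.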
# [10] = qHTS assay for small molecules that induce genotoxicity in human embryonic kidney cells expressing luciferase-tagged ATAD5 - cell viability (AID 651634; calls by dose curve; note: nearly all actives have a fitted effect of over 25% in size)
# Method in brief: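 HEK293T ATAD5-luc cells, 2,000/well; compound 15.5 hr, 37C/5% CO2; CellTiter-Fluor 30 min, 37C; fluorescence read.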
# [11] = qHTS assay to identify small molecule antagonists of the glucocorticoid receptor (GR) signaling pathway - cell viability counter screen (AID 720693); conditions: GR-bla HeLa viability, CellTiter-Glo luminescence, 18 h, with 5 nM dexamethasone present; viability change, negative = cytotoxic: at 58.5 µM (top of the series) unless noted; note: nearly all actives have a fitted effect of over 55% in size
# [12] = qHTS assay to test for compound auto fluorescence at 460 nm (blue) in HEK293 cells (AID 720678)
# Method in brief: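 HEK293 cells (2,000/well, medium with 10% dialyzed FBS) attached 4-5 hr, then exposed to compound overnight at 37C, 5% CO2. Blue fluorescence read at 405/460 nm, with triamterene as reference fluorophore.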
# [13] = qHTS assay to test for compound auto fluorescence at 460 nm (blue) in HepG2 cell free culture (AID 720685)
# Method in brief: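 Cell-free plates of MEM plus 10% FBS received 23 nL compound or DMSO vehicle; blue-channel (405/460 nm) intensity scored against triamterene as reference fluorophore.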
# [14] = qHTS assay to test for compound auto fluorescence at 460 nm (blue) in HepG2 cells (AID 720687)
# Method in brief: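 Cells (2,000/well in MEM with 10% FBS) attached overnight at 37 C, then were exposed to compound or DMSO for 1 hr at 37 C, 5% CO2. Fluorescence read at Ex/Em 405/460 nm, expressed as triamterene-equivalent signal.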
# Potency is the fitted concentration of half-maximal effect; tags give direction and shape of the fitted curve or compound fluorescence and quenching.
# Sequence of UniProt P04150 (P04150 whole entry, looked up): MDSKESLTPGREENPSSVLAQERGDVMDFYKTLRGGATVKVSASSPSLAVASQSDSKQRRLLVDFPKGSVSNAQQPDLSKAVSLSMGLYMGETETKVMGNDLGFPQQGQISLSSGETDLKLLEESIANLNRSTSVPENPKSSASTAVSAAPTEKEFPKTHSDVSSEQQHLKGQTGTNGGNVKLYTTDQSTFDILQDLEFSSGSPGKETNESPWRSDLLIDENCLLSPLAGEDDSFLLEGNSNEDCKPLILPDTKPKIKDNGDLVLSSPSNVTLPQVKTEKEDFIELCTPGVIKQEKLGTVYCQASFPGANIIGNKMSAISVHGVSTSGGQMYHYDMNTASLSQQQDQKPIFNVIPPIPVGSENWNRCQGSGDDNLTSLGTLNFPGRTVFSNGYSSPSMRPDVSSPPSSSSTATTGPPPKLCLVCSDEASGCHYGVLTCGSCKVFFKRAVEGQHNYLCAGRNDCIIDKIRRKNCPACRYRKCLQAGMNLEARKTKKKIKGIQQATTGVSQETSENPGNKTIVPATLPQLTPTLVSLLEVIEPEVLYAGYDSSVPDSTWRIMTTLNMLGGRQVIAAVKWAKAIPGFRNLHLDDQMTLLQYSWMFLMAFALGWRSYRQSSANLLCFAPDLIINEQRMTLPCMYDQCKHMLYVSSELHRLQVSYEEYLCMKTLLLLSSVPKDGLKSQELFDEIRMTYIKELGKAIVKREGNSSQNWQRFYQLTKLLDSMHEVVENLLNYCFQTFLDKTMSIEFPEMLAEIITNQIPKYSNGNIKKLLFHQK
structure (smiles),measurement,setting,value
O=C(O)CC[N+](=O)[O-],Potency,[1],"inconclusive: 79.4 µM [cytotoxic, single point]"
same,Potency,[2],inconclusive: 0.49 µM [activator]
same,"activity change, negative = inhibition",[3],inconclusive: 35.8%
same,Potency,[4],inconclusive: 70.8 µM [cytotoxic] and inactive
same,Potency,[5],"inconclusive: 70.8 µM [cytotoxic, partial curve, poor fit]"
same,Potency,[6],inactive
CC(C)[C@@H](C(=O)O[C@@H](C#N)c1cccc(Oc2ccccc2)c1)c1ccc(Cl)cc1,Potency,[1],"inconclusive: 27.3 µM [cytotoxic, partial curve, poor fit]"
same,Potency,[7],"inconclusive: 1.56 µM [cytotoxic, full curve, poor fit] and inconclusive: 30.6 µM [cytotoxic, partial curve, poor fit]"
same,Potency,[8],active: 12.4 µM and active: 30.6 µM
same,Potency,[9],"inconclusive: 68.6 µM [cytotoxic, single point]"
same,Potency,[5],"inconclusive: 49.2 µM [rising, partial curve, poor fit]"
CCOP(=S)(OCC)Oc1cc(C)nc(C(C)C)n1,Potency,[10],"inconclusive: 61.1 µM [falling, partial curve, poor fit]"
same,Potency,[7],active: 48.6 µM
same,Potency,[8],inactive and active: 30.6 µM
Clc1ccc(C(c2ccc(Cl)cc2)C(Cl)(Cl)Cl)cc1,Potency,[1],active: 26.6 µM and active: 48.9 µM and active: 27.3 µM
same,Potency,[8],active: 21.1 µM and active: 19.5 µM and active: 15.4 µM
same,Potency,[2],inconclusive: 30.1 µM [cytotoxic] and inconclusive: 55.3 µM [cytotoxic] and inconclusive: 54.9 µM [cytotoxic]
same,Potency,[3],active: 43.6 µM
same,Potency,[11],"inconclusive: 55.3 µM [cytotoxic] and inconclusive: 54.9 µM [cytotoxic, single point]"
same,Potency,[9],"inconclusive: 43.6 µM [cytotoxic, partial curve, poor fit]"
CC(C)c1ccc(OP(=O)(Oc2ccc(C(C)C)cc2)Oc2ccc(C(C)C)cc2)cc1,Potency,[1],"inconclusive: 2.17 µM [cytotoxic, full curve, poor fit] and inconclusive: 38.5 µM [cytotoxic, partial curve, poor fit]"
same,Potency,[3],inconclusive: 55.3 µM
same,"activity change, negative = inhibition",[3],inconclusive: -2.6% and inconclusive: -33.2%
same,Potency,[4],"inconclusive: 48.6 µM [cytotoxic, partial curve]"
same,Potency,[6],"inconclusive: 27.7 µM [cytotoxic, partial curve, poor fit]"
CC(C)c1cccc(C(C)C)c1O,Potency,[10],"inconclusive: 68.6 µM [falling, partial curve, poor fit]"
same,Potency,[7],"inconclusive: 68.4 µM [cytotoxic, partial curve, poor fit]"
same,Potency,[8],active: 54.3 µM and active: 61.1 µM
same,"ratio activity, negative = MMP loss",[8],inconclusive: -16.4%
ClC(Cl)=C(c1ccc(Cl)cc1)c1ccc(Cl)cc1,Potency,[1],active: 70.3 µM and active: 48.6 µM
same,Potency,[8],active: 22.2 µM and active: 24.3 µM
same,"activity change, negative = inhibition",[3],inconclusive: -29.1%
same,Potency,[4],"inconclusive: 68.6 µM [cytotoxic, partial curve]"
same,Potency,[5],"inconclusive: 68.6 µM [cytotoxic, single point]"
c1ccc2c(c1)cc1ccc3cccc4ccc2c1c34,Potency,[1],inactive
same,Potency,[7],"inconclusive: 9.88 µM [cytotoxic, partial curve, poor fit]"
same,Potency,[12],"inconclusive: 8.91 µM [fluorescent, partial curve, poor fit]"
same,Potency,[13],"inconclusive: 5.62 µM [fluorescent, partial curve, poor fit]"
same,Potency,[14],"inconclusive: 6.31 µM [fluorescent, partial curve, poor fit]"
same,Potency,[2],active: 25 µM [fluorescent]
same,Potency,[3],inconclusive: 7.91 µM [activator]
same,"viability change, negative = cytotoxic",[11],inconclusive: 30.2% [at 78.9 µM]
O=[N+]([O-])c1cc(C(F)(F)F)c(Cl)c([N+](=O)[O-])c1Nc1ncc(C(F)(F)F)cc1Cl,Potency,[10],active: 30.6 µM
same,Potency,[7],active: 0.172 µM
same,Potency,[8],active: 0.243 µM
same,Potency,[2],"inconclusive: 43.6 µM [cytotoxic, partial curve]"
same,Potency,[3],"inconclusive: 54.9 µM [cytotoxic, partial curve]"
same,Potency,[11],active: 21.9 µM
same,Potency,[5],active: 0.137 µM
CN(C)[C@@H]1C(=O)C(C(N)=O)=C(O)[C@@]2(O)C(=O)C3=C(O)c4c(O)ccc(Cl)c4[C@@](C)(O)[C@H]3C[C@@H]12,Potency,[1],"inconclusive: 62.4 µM [cytotoxic, single point]"
same,Potency,[8],"inactive and inconclusive: 17.6 µM [activator, full curve]"
same,Potency,[2],"inconclusive: 50 µM [rising, single point]"
same,Potency,[3],inconclusive: 50 µM
same,Potency,[11],"inconclusive: 4.06 µM [rising, single point]"
same,Potency,[9],inconclusive: 62.4 µM [cytotoxic]
O=C(NC(=O)c1c(F)cccc1F)Nc1cc(Cl)c(OC(F)(F)C(F)F)c(Cl)c1,Potency,[1],inactive
same,Potency,[8],active: 19.3 µM
same,Potency,[2],"inconclusive: 43.6 µM [activator, partial curve, poor fit]"
same,Potency,[3],inactive
same,Potency,[9],inactive
same,Potency,[4],inactive
Oc1ccc(Cl)cc1Cc1ccccc1,Potency,[1],"inconclusive: 29.8 µM [cytotoxic, single point] and inconclusive: 61.1 µM [cytotoxic, single point] and active: 55.1 µM"
same,Potency,[7],active: 13.3 µM and active: 21.7 µM and active: 15.4 µM
same,Potency,[3],"inconclusive: 61.6 µM [cytotoxic, single point] and inconclusive: 55.6 µM [cytotoxic]"
same,"activity change, negative = inhibition",[3],inconclusive: -41.2%
same,Potency,[11],"inconclusive: 54.9 µM [cytotoxic, single point]"
same,Potency,[9],"inconclusive: 68.6 µM [cytotoxic, single point]"
same,Potency,[6],active: 38.9 µM and active: 39.4 µM
Oc1cc(Cl)ccc1Oc1ccc(Cl)cc1Cl,Potency,[1],"inconclusive: 33.5 µM [cytotoxic, partial curve, poor fit]"
same,Potency,[7],"inconclusive: 11.9 µM [cytotoxic, partial curve] and active: 11.1 µM"
same,Potency,[14],"inconclusive: 12.6 µM [fluorescent, partial curve, poor fit]"
same,Potency,[2],inconclusive: 20 µM [cytotoxic]
same,Potency,[3],"inconclusive: 1.07 µM [activator, single point] and inconclusive: 44.7 µM [cytotoxic, partial curve]"
same,Potency,[9],"inconclusive: 33.5 µM [cytotoxic, single point]"
same,Potency,[4],"inconclusive: 33.5 µM [cytotoxic, single point]"
C=C(C)[C@H]1Cc2c(ccc3c2O[C@@H]2COc4cc(OC)c(OC)cc4[C@@H]2C3=O)O1,Potency,[10],"inconclusive: 1.5 µM [falling, partial curve, poor fit]"
same,Potency,[7],active: 11.9 µM and active: 31 µM and active: 12.2 µM
same,Potency,[8],active: 15 µM and active: 31 µM and active: 4.86 µM
same,Potency,[2],inactive and inconclusive: 54.9 µM [single point]
same,Potency,[3],"inconclusive: 1.9 µM [activator, full curve] and inconclusive: 61.6 µM [cytotoxic, single point]"
same,"activity change, negative = inhibition",[3],inconclusive: -19% [at 78.9 µM]
same,Potency,[4],active: 119 nM and active: 11 nM and active: 8.6 nM
same,Potency,[6],"inconclusive: 301 nM [cytotoxic, full curve] and active: 62.5 nM and active: 38.9 nM"
[O]=[Cr](=[O])([OH])[O][Cr](=[O])(=[O])[OH],Potency,[10],"inconclusive: 21.6 µM [falling, partial curve]"
same,Potency,[7],active: 27.6 µM and active: 30.6 µM
same,Potency,[3],active: 3.08 µM
COC(=O)NC(=S)Nc1ccccc1NC(=S)NC(=O)OC,Potency,[1],"inconclusive: 77 µM [cytotoxic, single point]"
same,Potency,[11],inactive
same,Potency,[9],"inconclusive: 77 µM [cytotoxic, single point]"
CCCC[P+](CC)(CCCC)CCCC (tested in a mixture with another compound),Potency,[1],"inconclusive: 69.1 µM [cytotoxic, single point]"
same,Potency,[8],"inconclusive: 30.9 µM [activator, partial curve, poor fit]"
CC1CCCC1,Potency,[10],"inconclusive: 75.7 µM [falling, partial curve, poor fit]"
same,Potency,[8],"inconclusive: 75.7 µM [inhibitor, single point]"
same,Potency,[2],inactive
same,Potency,[3],"inconclusive: 42.9 µM [inhibitor, partial curve]"
same,Potency,[11],"inconclusive: 54.1 µM [cytotoxic, partial curve]"
Cc1ccc2c(c1N)C(=O)c1ccccc1C2=O,Potency,[10],"inconclusive: 3.81 µM [falling, partial curve, poor fit]"
same,Potency,[7],"inconclusive: 48 µM [cytotoxic, partial curve, poor fit] and inconclusive: 30.6 µM [cytotoxic, partial curve, poor fit]"
same,Potency,[8],active: 480 nM and active: 386 nM
same,Potency,[9],"inconclusive: 1.21 µM [rising, full curve, poor fit]"
same,Potency,[4],"inconclusive: 21.4 µM [cytotoxic, single point]"
